T1: Human his-tagged NKG2D/CD314 (Acro Biosystems, NKD-H5245) (human, UniProt P26718 78-216, limits assumed)
T1 construct: Bought recombinant protein with a His tag; also called Human NKG2D-His protein; NKG2D-His
T1 sequence (looked up): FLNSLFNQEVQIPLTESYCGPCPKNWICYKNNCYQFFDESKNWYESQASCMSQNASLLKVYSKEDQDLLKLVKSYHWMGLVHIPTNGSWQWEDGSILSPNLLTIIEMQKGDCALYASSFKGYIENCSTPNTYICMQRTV

T2: Human IL-15R beta/CD122 Protein, His Tag (Acro Biosystems CD2-H5221) (human, UniProt P14784 27-239)
T2 construct: Bought recombinant protein with a His tag; also called Human IL-15Rβ protein; IL-15 receptor beta-His
T2 sequence (looked up): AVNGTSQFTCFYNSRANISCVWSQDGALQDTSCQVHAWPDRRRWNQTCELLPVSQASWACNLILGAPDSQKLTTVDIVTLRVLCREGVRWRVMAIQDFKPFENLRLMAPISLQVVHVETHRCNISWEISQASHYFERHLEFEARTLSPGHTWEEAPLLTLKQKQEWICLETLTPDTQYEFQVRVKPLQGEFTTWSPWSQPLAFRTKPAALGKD


Experiments:
[1] = biological target: T1, Human his-tagged NKG2D/CD314 (Acro …); assay: SPR (Biacore), molecule captured on anti-human IgG Fc chip, antigen as analyte, 1:1 Langmuir fit
Experimental: (§1) In brief, the test molecules were first immobilized on a goat anti-human IgG (Fc specific) antibody plated on a Biacore CM5 Series S sensor chip (CFJB1172, Cytiva Cat No. 29149603) by injection at 5 nM at flow rate 30 ul/min. […] The quality of the fits was assessed by visual inspection.

[2] = biological target: T2, Human IL-15R beta/CD122 Protein, His …; assay: as above
Experimental: as §1

Binder | Kd [1] | Kd [2]
CYTB02 (other, Immunocytokine, Format A: anti-NKG2D IgG1 (H1/L1) with sushi-IL-15 fused to the C-terminus of each heavy chain) heavy: QVQLVESGGGLVKPGGSLRLSCAASGFTFSSYGMHWVRQAPGKGLEWVAFIRYDGSNKYYADSVKGRFTISRDNSKNTKYLQMNSLRAEDTAVYYCAKDRGLGDGTYFDYWGQGTTVTVSS[human IgG1 constant region omitted here]GGSITCPPPMSVEHADIWVKSYSLYSRERYICNSGFKRKAGTSSLTECVLNKATNVAHWTTPSLKCIRGGGGSGGGSGGGGS[about 120 residues omitted here] light: QSALTQPASVSGSPGQSITISCSGSSSNIGNNAVNWYQQLPGKAPKLLIYYDDLLPSGVSDRFSGSKSGTSAFLAISGLQSEDEADYYCAAWDDSLNGPVFGGGTKLTVLGQPKANPTVTLFPPSSEELQANKATLVCLISDFYPGAVTVAWKADGSPVKAGVETTKPSKQSNNKYAASSYLSLTPEQWKSHRSYSCQVTHEGSTVEKTVAPTEC | 0.24 nM | 2.3 nM
CYTB03 (other, Immunocytokine, Format A: anti-NKG2D IgG1 (H1 with framework change/L1) with sushi-IL-15 at the C-terminus of each heavy chain) heavy: QVQLVESGGGLVKPGGSLRLSCAASGFTFSSYGMHWVRQAPGKGLEWVAFIRYDGSNKYYADSVKGRFTISRDNSKNTLYLQMNSLRAEDTAVYYCAKDRGLGDGTYFDYWGQGTTVTVSS[human IgG1 constant region omitted here]GGSITCPPPMSVEHADIWVKSYSLYSRERYICNSGFKRKAGTSSLTECVLNKATNVAHWTTPSLKCIRGGGGSGGGSGGGGS[about 120 residues omitted here] light: QSALTQPASVSGSPGQSITISCSGSSSNIGNNAVNWYQQLPGKAPKLLIYYDDLLPSGVSDRFSGSKSGTSAFLAISGLQSEDEADYYCAAWDDSLNGPVFGGGTKLTVLGQPKANPTVTLFPPSSEELQANKATLVCLISDFYPGAVTVAWKADGSPVKAGVETTKPSKQSNNKYAASSYLSLTPEQWKSHRSYSCQVTHEGSTVEKTVAPTEC | 0.24 nM | 2.6 nM

From patent US20260232829A1 (CYTOSPIRE THERAPEUTICS, published 2026)
